Experimental data taken from paper PMC4336329 (PLoS ONE, 2015).
About 14,000 (4.5%) of roughly 310,000 compounds showed an effect of 50% or more. The effect is printed as a negative number. This is one part of the list.

Target: human ether-à-go-go-related gene (hERG) potassium channel (human, UniProt Q12809)
Experiment: primary screen, population patch clamp on CHO cells stably expressing hERG
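Note: peak tail current of the secondary pulse compared with the same well before compound.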

Chain of human ether-à-go-go-related gene (hERG) potassium channel (Q12809 whole entry, looked up): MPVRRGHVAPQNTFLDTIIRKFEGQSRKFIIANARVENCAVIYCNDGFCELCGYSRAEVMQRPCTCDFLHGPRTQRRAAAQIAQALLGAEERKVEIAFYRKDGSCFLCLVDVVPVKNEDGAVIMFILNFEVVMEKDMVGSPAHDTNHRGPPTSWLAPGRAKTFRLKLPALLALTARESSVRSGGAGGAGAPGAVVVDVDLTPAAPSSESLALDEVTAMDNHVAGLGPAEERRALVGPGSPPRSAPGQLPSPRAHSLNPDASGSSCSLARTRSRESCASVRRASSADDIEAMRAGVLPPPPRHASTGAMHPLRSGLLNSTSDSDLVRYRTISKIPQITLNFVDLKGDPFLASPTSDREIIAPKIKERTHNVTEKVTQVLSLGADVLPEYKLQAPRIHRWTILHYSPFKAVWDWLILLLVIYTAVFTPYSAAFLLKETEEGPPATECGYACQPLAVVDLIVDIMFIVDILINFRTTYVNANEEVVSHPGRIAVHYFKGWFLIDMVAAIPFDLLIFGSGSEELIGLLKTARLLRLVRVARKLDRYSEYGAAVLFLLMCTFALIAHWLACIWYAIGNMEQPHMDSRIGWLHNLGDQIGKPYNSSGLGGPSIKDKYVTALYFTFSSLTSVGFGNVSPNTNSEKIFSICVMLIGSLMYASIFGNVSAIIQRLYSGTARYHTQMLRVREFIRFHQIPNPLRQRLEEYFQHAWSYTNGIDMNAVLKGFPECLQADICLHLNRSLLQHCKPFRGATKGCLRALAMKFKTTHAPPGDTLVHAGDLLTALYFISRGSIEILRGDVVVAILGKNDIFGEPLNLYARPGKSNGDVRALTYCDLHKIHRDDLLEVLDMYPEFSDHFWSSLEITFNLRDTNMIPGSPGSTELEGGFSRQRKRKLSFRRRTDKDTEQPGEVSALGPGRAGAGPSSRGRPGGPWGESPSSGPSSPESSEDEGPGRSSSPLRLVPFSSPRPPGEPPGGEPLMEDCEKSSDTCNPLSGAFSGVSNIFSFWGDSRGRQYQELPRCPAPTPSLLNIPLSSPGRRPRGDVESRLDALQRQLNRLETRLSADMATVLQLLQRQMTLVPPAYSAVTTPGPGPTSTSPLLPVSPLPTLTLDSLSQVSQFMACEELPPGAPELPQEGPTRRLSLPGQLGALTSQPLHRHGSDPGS

Compound | hERG current change (%, negative = inhibition) at 10uM [%]
COC(=O)c1ccc(C(=O)OC)c(NC(=O)CN2CCN(c3ccc(OC)cc3)CC2)c1 | 11.5
CCc1nc2ccc(N3CCN(C)CC3)cc2nc1CC | 19.7
CC(=O)c1ccc(-c2nnc(CCC(=O)N(C)Cc3c(C)nc4ccccn34)o2)s1 | -29.6
O=c1[nH]c(SCc2ccccc2)nnc1-c1ccccc1 | 8.58
Cn1c(=O)c2c(ncn2CC(=O)Nc2nccs2)n(C)c1=O | 11.9
COc1ccc(-c2nc3cnccn3c2NC(C)(C)CC(C)(C)C)cc1O | -2.63
COC(=O)c1ccc(OCC(O)CNCC(c2ccc(OC)cc2)N(C)C)c(OC)c1 (stereo not shown) | -21.4
O=C(NC(=S)Nc1cccc([N+](=O)[O-])c1)C1CCCCC1 | 13.9
COc1ccc(/C=C2/C(=O)N(Cc3ccco3)C(=O)N(C(C)C)C2=O)cc1 | 7.27
CCN(CC(=O)Nc1cc(Cl)ccc1Cl)C(=O)c1ccc(-n2cccn2)cc1 | -34.2
O=c1cc(-c2ccccc2)nc2nc(SCc3ccccc3)[nH]n12 | 3.62
CC1CC(CCN)(c2ccccc2)C(C)CN1C.Cl (stereo not shown) | 11.4
Cc1ccc(Nc2c(-c3ccc(N(C)C)cc3)nc3ncccn23)cc1 | 10.6
CC(C)OCCCNC(=O)c1ccncc1 | -0.61
COc1ccccc1-c1cc(C(=O)N/N=C/c2sccc2C)c2ccccc2n1 | -7.09
CCN1CN(Cc2ccccc2)CNC1=S | 13.8
C=CCNc1nc(-c2c(C)nc3sccn23)cs1 | -10.1
CSc1ccccc1NC(=O)CSc1n[nH]c(C)c1[N+](=O)[O-] | 4.74
CCn1c(C)nc2cc(C(=O)N/N=C/c3ccccc3)ccc21 | -17.5
Cc1ccc(C(=O)NCCn2cc(SCC(=O)Nc3cc(C)on3)c3ccccc32)cc1 | 10.6
CC12CCCCN1CCCc1c2[nH]c2ccccc12.Cl (stereo not shown) | -29.4
COc1ccccc1-c1sc2ccccc2c1-c1ccc(Br)nc1 | 17.3

Compound | hERG current change (%, negative = inhibition) at 10uM [%]
CC1CCCCC1NC(=O)c1ccc(CNc2c(N3CCCC3)c(=O)c2=O)cc1 (stereo not shown) | 14.3
N#CC(C(=O)NC1CCCCC1)=C1CCCCCC1 | 0.321
CC(C)N1C(=O)C(O)(C2COC(C)(C)CC2=O)c2ccccc21 (stereo not shown) | 24.1
Cc1ccccc1Cc1c(C)nc2c(C(=O)N3CCN(Cc4ccc5c(c4)OCO5)CC3)cnn2c1C | -19.7
O=C(CCCc1nc2ccccc2s1)NC(c1ccccc1)c1ccccc1 | -5.52
Cc1nc2ccc(S(=O)(=O)NCC(=O)Nc3ccc(F)cc3)cc2s1 | 13.5
O=C(NCc1ccccc1)c1ccc(NS(=O)(=O)c2cccs2)cc1 | -5.55
CCCc1nnc(SCc2ccc(OC)cc2)n1N | 2.77
COc1ccc(NC2CCCN(C(=O)c3cc(CC(C)C)nc(N)n3)C2)cc1 (stereo not shown) | 0.682
Cc1ccc(OCCCn2cc(C#N)c3ccccc32)cc1 | 0.608
O=C(Cn1ncc2c([nH]c3ccccc32)c1=O)Nc1cccnc1 | 10.3
CCN(CC)CCC#CC(O)(c1ccccc1)C1CCCCC1 (stereo not shown) | -45.5
N#C/C(=C\c1ccc(-c2cccc(Cl)c2)o1)C(=O)Nc1cccc2cccnc12 | 13.2
CC(=O)Nc1ccc(S(=O)(=O)N2C(C)CCCC2C)cc1 (stereo not shown) | 8.62
CCOC(=O)N1CCC(Nc2c(Nc3cccc(CC)c3)c(=O)c2=O)CC1 | -11.1
O=C(NNS(=O)(=O)c1ccccc1)c1cccnc1 | -4.97
CC/C(=N\NC(=O)c1ccccc1)c1c(O)n(Cc2ccccc2)c(=O)[nH]c1=O | 15.5
CSC1=NC2(C[C@H]2c2ccccc2)C(=O)N1C (stereo partly shown) | 16.9
Cc1cccc2c(=O)c(-c3ccc(Cl)cc3)c(NC(=O)c3ccco3)oc12 | 15.3
CC1CCN(S(=O)(=O)N2CCC(C(=O)NCc3ccc4c(c3)OCO4)CC2)CC1 | 6.73
CCOC(=O)Cn1c(=O)oc2cc(S(=O)(=O)NC(C)(C)CC)ccc21 | 4.23
Cc1ccc(C2=NN(S(C)(=O)=O)C(c3ccc4nccnc4c3)C2)cc1 (stereo not shown) | -3.61

Compound | hERG current change (%, negative = inhibition) at 10uM [%]
CSc1ccccc1NC(=O)C1=CC(c2ccc(C)cc2)=NS(=O)(=O)N1C | -12.3
COC(=O)C1=C(C)NC2=C(C(=O)CC(c3cccs3)C2)C1c1ccsc1 (stereo not shown) | 2.81
CCCCc1c(C)c2ccc(OCC(C)=O)cc2oc1=O | -10.6
CC(=O)NC(C)C(=O)OCc1ccc(Cl)cc1Cl (stereo not shown) | 5.38
N#CC1=C(Nc2ccccc2)SC=C(c2ccc(Cl)c(Cl)c2)N=C1N1CCOCC1 | -50.9
CCN(CCNC(=O)c1ccc2nc(-c3ccccc3NC(C)=O)c(=O)[nH]c2c1)c1ccccc1 | 8.62
CC(=O)Nc1cccc(OCC(=O)NCCC2=CCCCC2)c1 | -0.744
Oc1ccc(NCc2cccc(OCc3ccccc3)c2)cc1 | -9.81
O=C(COc1ccccc1)Nc1cc(S(=O)(=O)N2CCOCC2)ccc1N1CCCC1 | -8.47
COc1cc(SC#N)ccc1N=Cc1c(C)[nH]n(-c2cccc3ccccc23)c1=O | 17.8
Cc1ccc(-c2nc(C#N)c(NCC3CCCO3)o2)cc1 (stereo not shown) | -0.109
Cc1ccc(NC(=O)COC(=O)CCC(=O)c2ccc(C(C)(C)C)cc2)c([N+](=O)[O-])c1 | 25.4
COc1ccc(NC(=O)CCOc2ccc(C)cc2)c(OC)c1 | 18.3
CC1Cc2ccccc2N1S(=O)(=O)c1ccc2c(c1)n(C)c(=O)c(=O)n2C (stereo not shown) | -3.54
CCc1c(C(=O)Nc2cc(C)cc(C)c2)[nH]c(C)c1C(C)=O | 12.7
COc1ccc(CCNC(=O)c2ccc(N3CCCC3=O)cc2)cc1OC | 15.3
O=C(O)Cn1nnn(-c2ccccc2)c1=S | 9.48
CC(C)C[C@H]1C(=O)N2CCC[C@H]2[C@]2(O)O[C@](NC(=O)C3C=C4c5cccc6[nH]c(Br)c(c56)C[C@H]4N(C)C3)(C(C)C)C(=O)N12.CS(=O)(=O)O (stereo partly shown) | 20.4
Cc1nc(Nc2cccc(C(F)(F)F)c2)nc2c1C(=O)CC(C)C2 (stereo not shown) | 13.8
COc1ccc(/C(O)=C2/C(=O)C(=O)N(c3ccccn3)C2c2ccc(F)cc2)cc1 (stereo not shown) | 35.2
Cc1ccc(CC2CC(=O)N(c3ccc4c(c3)OCCO4)C2=O)cc1 (stereo not shown) | -9.24
CCc1cccc(CC)c1NC(=S)NCC(c1cccnc1)N(C)C (stereo not shown) | 0.113

Compound | hERG current change (%, negative = inhibition) at 10uM [%]
CC(C)CC(NC(N)=O)C(=O)OCC(=O)Nc1ccc(SC(F)F)cc1 (stereo not shown) | -19.8
COc1ccc(OC)c(N=Cc2c(O)n(Cc3ccccc3)c(=S)[nH]c2=O)c1 | 7.43
CN1CCN(C(=O)C23CC4CC(CC(C4)C2)C3)CC1 | 5.32
COc1cc2c(cc1NC(=O)COC(=O)C1CC(=O)N(Cc3ccco3)C1)oc1ccccc12 (stereo not shown) | 11.5
Cn1cc[n+](C)c1P(=S)(c1ccccc1)c1ccccc1.[Cl-] | 9.69
CCCN1c2cccc3cccc(c23)S1(=O)=O | -8.12
COc1ccccc1OCC(=O)NCCS(=O)(=O)N1CCN(c2ccccc2)CC1 | -44.4
CCc1cc(=O)[nH]c(SCCC(F)=C(F)F)n1 | 27.7
CC1(C)CC(CCC(=O)NC(=S)Nc2ccccc2Cl)C(=O)O1 (stereo not shown) | -3.38
CCN1CCN(CCCNC(=O)CS(=O)(=O)Cc2nc(-c3cccc(OC)c3)oc2C)CC1 | -4.71
CN=C1CC(C)(C)CC(=O)/C1=C(/O)CCCN1C(=O)c2ccccc2C1=O | 1.61
O=C(CN1C(=O)c2cccnc2Oc2ccc(Cl)cc21)Nc1ccccc1F | -17
Cc1ccc2c(c1)N(CC(=O)NC1CCCCC1)C(=O)c1cccnc1O2 | -3.84
c1ccc2c(c1)nc(NCCN1CCOCC1)c1nncn12 | 5.92
Oc1c(CN2CCOCC2)cc(-c2ccccc2)cc1CN1CCOCC1 | -12.7
Cc1occc1-c1nnc(SCC(=O)Nc2ccc(F)cc2)n1C | -24.8
Cc1noc(C)c1CSc1nc2ccccc2c(=O)n1-c1ccccc1 | -15.9
O=C(COC(=O)CNS(=O)(=O)c1ccccc1)Nc1ccc(Cl)cn1 | -5.46
Cc1cc(C)nc(NNC2=CC(=O)CC(C)(C)C2)n1 | 11.9
CCN(C(=O)CN1CCOCC1)C1(C)C(=O)c2ccccc2C1=O.Cl | 12
CSCCC(NC(=O)c1ccccc1)C(=O)NCc1ccco1 (stereo not shown) | -11.8
O=C(CCC1CCCN(Cc2ccncc2)C1)NCc1ccc(F)c(F)c1 (stereo not shown) | -13.6
